Structures are written as SMILES. Among all 46,000 compounds or so, about 60 (0.1%) were called active. Roughly 3% stayed inconclusive and do not appear here. Calls come from the whole dose curve; as a rule, active = well fitted inhibition curve with a large enough effect; inconclusive = small, poorly fitted or top-dose-only effect; inactive = no such curve, though single readings can be large or run the other way. This is one part of the list.

This note sets out measurements from PubChem BioAssay AID1963576 (National Center for Advancing Translational Sciences (NCATS), 2024).

The assay in a line: Primary qHTS assay for Inhibitors of ovarian cancer metastasis using an organotypic tumor microenvironment (TME) model.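 For activity change, negative = inhibition: plate controls were DMSO wells for no effect and tomatine positive control wells for full effect.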 Note: nearly all actives have a fitted effect of over 65% in size. The conditions noted are these: SKOV3ip1-GFP adhesion/invasion on 3D omental model, fluorescence; series mostly up to 45.8 µM; activity change, negative = inhibition: at the top concentration. The method, boiled down:
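A 3D layer of primary human omental fibroblasts, mesothelial cells, fibronectin and collagen I, grown 48 hr, received SKOV3ip1-GFP cells in serum-free medium plus compounds at 0.36-46 umol/L. After 2 hr RT and 16 hr 37 C, fixed adherent GFP cells were counted; normalized to DMSO and tomatine.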
For orientation: In qHTS, concentration-response curves come from the screen itself.
`O=C(CN1CCCN(Cc2ccccc2Cl)S1(=O)=O)NCc1ccccc1`: the molecule was classed as inactive. `O=S(=O)(NCC(c1ccco1)N1CCOCC1)c1cc(F)ccc1F` (centres undefined): the “activity change, negative = inhibition” value was inactive: 3.13%. Still for that read-out and setting: then `Cc1cccc(NC(=O)CSc2c(C)cnc3c2c(=O)n(C)c(=O)n3C)c1C`, with inactive: -2.87%; and `Cc1ccc(-c2nonc2NC(=O)c2ccc(F)cc2)cc1C`, with inactive: -9.42%; and `Cc1cc(C)cc(NC(=O)C2CCCN(C(=O)c3cnn(-c4ccccc4)c3-n3cccc3)C2)c1` (centres undefined), with inactive: 7.38%. On to `CCC1CCCCN1CC(=O)Nc1cc(C)c2c(=O)oc3ccccc3c2n1` (centres undefined), for which the “activity change, negative = inhibition” value was inactive: 14.4%. As to `O=C(CSc1nc2c([nH]c3ccccc32)c(=O)n1-c1ccc(Cl)cc1)N1CCOCC1`, the molecule was called inactive. Regarding `O=C(c1cc2c(s1)-c1ccccc1OC2)N1CCN(c2ccccc2)CC1`, the “activity change, negative = inhibition” value is inactive: -11.7%. Regarding `CC1=C(C(=O)Nc2ccccc2)C(CC(C)C)n2nc(SCc3ccccc3C)nc2N1` (centres undefined), the outcome was inactive.

`Cc1cc(C(=O)N2CCN(c3cccc(Cl)c3)CC2)n(-c2ccccc2)n1`: the “activity change, negative = inhibition” value is inactive: 4.64%. In the case of `CCCOc1ccc(C(=O)N(Cc2ccc(N(C)C)cc2)CC2CCCO2)cc1` (centres undefined), the “activity change, negative = inhibition” value was inactive: 0.445%. On the same count and under the same terms, the same measure for `O=C(CCc1ccccc1)N(Cc1cccnc1)c1nc2c(F)cccc2s1`: inactive: -10.4%; for `COc1cc(C(=O)NCC(c2ccco2)S(=O)(=O)c2ccccc2)cc(OC)c1OC` (centres undefined): inactive: -4.37%. In the case of `CCc1nn(C(CC)C(=O)NCc2ccc(F)cc2)c(=O)c2cc3occc3n12` (centres undefined), the outcome was inactive. Turning to `Cc1nc(-c2ccc(Cl)cc2)sc1CCNC(=O)c1cccs1`, the molecule was called inactive. Consider `Cc1ccc(Nc2c(-c3ccc(O)cc3)nc3cccc(C)n23)cc1`, for which the “activity change, negative = inhibition” value was inactive: -26.6%. Regarding `Cc1cccc(NC(=O)CSc2nncn2C)c1`, the molecule was classed as inactive. For the molecule `Cc1ccc(NC(=O)Cc2csc(C)n2)c(C)c1`, the “activity change, negative = inhibition” value was inactive: 3.38%. `CCCN(CCC)CCCNC(=O)Cn1ncc2c3ccccc3n(Cc3ccccc3)c2c1=O`: the “activity change, negative = inhibition” value is inactive: -1.76%.

In the case of `Cc1ccc(C(=O)Nc2ccc(OCc3cc(=O)n4c(C)csc4n3)cc2)cc1`, the “activity change, negative = inhibition” value was inactive: 0.615%. The same measure, in the same setting: then `O=C(c1ccc2c(c1)N(Cc1ccccc1)C(=O)c1ccccc1S2(=O)=O)N1CCCCCC1`, with inactive: -9.91%; and `Cc1ccc(S(=O)(=O)c2c(Nc3cc(F)ccc3F)sc(C(=O)c3ccc(F)cc3)c2N)cc1`, with inactive: 58.7%; and `CC(=O)Nc1nonc1-c1nnc(SCC(=O)Nc2cc(C)cc(C)c2)n1-c1ccccc1`, with inactive: -13.6%. As to `CCN(CC)CCN(C(=O)c1ccco1)c1nc2ccc(Br)cc2s1`, the “activity change, negative = inhibition” value was inactive: -4.35%. The same measure, in the same setting: the same measure for `CCCOc1ccc(-c2nc(SC)[nH]c(=O)c2C#N)cc1OC`: inactive: -0.49%.

For the molecule `Cc1ccc(NC(=O)CSc2nc(-c3ccco3)nc3cc(=O)[nH]n23)cc1C`, the molecule was classed as inactive.

Consider `Cc1ccc(C)c(Cn2c3ccccc3c3cnn(CC(=O)NCc4ccccc4)c(=O)c32)c1`, for which the “activity change, negative = inhibition” value was inactive: -5.64%. Turning to `Cc1cc(C)c(NC(=O)Nc2ccc3snnc3c2)c(C)c1`, the “activity change, negative = inhibition” value is inactive: 8.48%. In the case of `Clc1ccccc1CNc1ncnc2c1c(-c1ccccc1)cn2-c1ccccc1`, the “activity change, negative = inhibition” value is inactive: -3.58%. Still for that read-out and setting: then `CCC(C)NC(=O)CSc1nc2c(sc3ccccc32)c(=O)n1Cc1ccccc1Cl` (centres undefined), with inactive: 3.22%. For `Cc1cccc2nc(-c3cccc(NS(=O)(=O)c4ccccc4)c3)cn12`, the “activity change, negative = inhibition” value was inactive: -8.47%. On to `Cc1ccc(C)c(CSc2nc3ccncc3n2CC(=O)Nc2ccc(N(C)C)cc2)c1`, for which the outcome was inactive. For the molecule `COc1cccc(N2CC(NC(=O)c3cccc(OC)c3OC)CC2=O)c1` (centres undefined), the “activity change, negative = inhibition” value was inactive: -1.66%. The same measure, in the same setting: the same measure for `CC(=O)c1ccc(NC(=O)COCc2cc(-c3ccco3)on2)cc1`: inactive: 10.9%. With `Cc1ccccc1OCc1nnc(SCc2cc(=O)c3cccc(F)c3[nH]2)n1C`, the outcome was inactive. As to `COCCCNC(=O)CSc1nc2c(sc3ccccc32)c(=O)n1CCCC(=O)NCCOC`, the “activity change, negative = inhibition” value was inactive: -4.63%.

For the molecule `Fc1ccccc1Cn1c(-c2ccccc2)nc2ccccc21`, the molecule was classed as inactive. As to `COc1ccc2c(c1)c1c(c(=O)n(-c3cccc(Cl)c3)c(=O)n1CC(=O)N1CCCC1)n2C`, the “activity change, negative = inhibition” value was inactive: 97.2%. Same read-out and setting: the same measure for `Cc1ccc(-c2cc(C(=O)Oc3ccccc3)c3cc(C)ccc3n2)cc1`: inactive: 0.653%; for `CCOc1ccccc1NC(=O)Cn1ccn(Cc2ccc(C)cc2)c(=O)c1=O`: inactive: 9.02%; for `CCOC(=O)Cn1nc(C)c(NC(=O)COc2ccc(Cl)cc2C)c1C`: inactive: 4.14%. The same measure, in the same setting: the same measure for `CCC1CCCCN1CCCNC(=O)CN1C(=O)CSc2ccc(S(=O)(=O)N3CCOCC3)cc21` (centres undefined): inactive: -20.1%; for `Cc1cc(NC(=O)C2CCN(S(=O)(=O)c3ccc4[nH]c(=O)oc4c3)CC2)ccc1Br`: inactive: 10.6%.

Take `Clc1ccccc1CN1CCc2sccc2C1`: the “activity change, negative = inhibition” value is inactive: -16.6%. Regarding `CC(C)(C)C(=O)NCCc1csc2nc(-c3ccc(F)cc3)nn12`, the “activity change, negative = inhibition” value is inactive: 3.91%. Take `Cc1ccc(Cl)cc1N1CCN(CCNC(=O)Nc2ccccc2Cl)CC1`: the “activity change, negative = inhibition” value was inactive: 112%. Same read-out and setting: then `COC(=O)c1nc2n(n1)C(c1cc(OC)ccc1OC)C(C(=O)Nc1ccc(C)cc1C)=C(C)N2` (centres undefined), with inactive: 4.31%. For the molecule `Cc1ccc(CN(C(=O)COc2c(C)cccc2C)C2CCS(=O)(=O)C2)o1` (centres undefined), the outcome was inactive.

`Cc1ccc(NC(=O)C(Cc2c[nH]c3ccccc23)NC(=O)OCC(C)C)cc1` (centres undefined): the “activity change, negative = inhibition” value was inactive: 11.6%. With `COc1cc(NC(=O)c2nc(-c3ccncc3)no2)cc(OC)c1OC`, the “activity change, negative = inhibition” value was inactive: 24.4%. As for `COc1ccc(/C=C\C(=O)NC2CC(=O)N(c3ccccc3)C2)cc1OC` (centres undefined), the result was inactive. For the molecule `CSc1cccc(NC(=O)C2CCN(C(=O)c3cnn(-c4ccccc4)c3-n3cccc3)CC2)c1`, the “activity change, negative = inhibition” value is inactive: 10.7%. For the molecule `CCc1ccc(-n2c(=O)c3c4c(sc3n(CC(=O)c3ccc(Cl)cc3)c2=O)CCC4)cc1`, the result was inactive.

Regarding `COc1ccc2oc(-c3ccc(C)c(NC(=O)COc4cc(C)cc(C)c4)c3)nc2c1`, the “activity change, negative = inhibition” value was inactive: -13.1%.

Consider `Cc1ccc(Cl)cc1NC(=O)C(=O)NCC(c1cccnc1)N1CCc2ccccc21` (centres undefined), for which the “activity change, negative = inhibition” value was inactive: 8.51%. For `O=C(CCS(=O)(=O)c1cccc2nsnc12)Nc1ccc(F)cc1`, the outcome was inactive.

Consider `Cc1ccc2oc3c(c(=O)c2c1)C1(C(=O)N(C)c2ccccc21)N(CCCO)C3=O` (centres undefined), for which the “activity change, negative = inhibition” value is inactive: 23%. For the molecule `Cc1nn(-c2ccc(N3CCOCC3)nn2)c(C)c1CCC(=O)NCc1ccc(F)cc1`, the result was inactive. Regarding `Cc1ccc2c(c1)C(c1ccc(F)cc1)N(C(=O)c1ccc(OC(C)C)cc1)CC(=O)N2` (centres undefined), the “activity change, negative = inhibition” value was inactive: -12.2%.

In the case of `Cc1ccccc1C(=O)Nc1cc(-c2ccc(Cl)cc2)nn1-c1ccccc1`, the “activity change, negative = inhibition” value was inactive: -9.99%. Consider `O=C(c1ccccc1)N1c2ncnn2C2(CCCCC2)[C@@H]2CCCC[C@@H]21`, for which the “activity change, negative = inhibition” value is inactive: -7.53%. Regarding `COc1ccccc1NC(=O)c1sc2nc3c(cc2c1N)CCCCCC3`, the “activity change, negative = inhibition” value is inactive: -17.1%. Still for that read-out and setting: the same measure for `Cc1ccc(-n2nnc(C(=O)Nc3cc(F)ccc3F)c2C)cc1F`: inactive: 3.1%. Take `CCOc1ccc(NC(=O)CSc2nc3c(oc4ccccc43)c(=O)n2CCOC)cc1`: the “activity change, negative = inhibition” value was inactive: 17.2%.
